The list shows a part of the results.
What was measured:
Experiment in all cases: glycan array binding signal (z-score within array); higher = stronger binding
Details in all cases: glycan notation: IUPAC condensed, linker removed
[1] = biological target: GalNAc(b1-3)GalNAc
Procedure, shortened: (§1)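 Arrays were curated from the Consortium for Functional Glycomics database, 3228 in total, and kept only where the protein sequence was available. Binding is expressed as a within-array Z-score. This score was averaged across arrays of the same protein sequence at different concentrations or buffers and across linkers, and negative values can be read as non-binding.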

[2] = biological target: GalNAc(b1-3)GlcNAc
Procedure, shortened: as §1

[3] = biological target: GalNAc(b1-4)Gal(b1-4)Glc
Procedure, shortened: as §1

[4] = biological target: GalNAc(b1-4)Gal3S(b1-4)Glc
Procedure, shortened: as §1

[5] = biological target: GalNAc(b1-4)GlcNAc
Procedure, shortened: as §1

[6] = biological target: GalNAc(b1-4)GlcNAc(b1-2)Man
Procedure, shortened: as §1

[7] = biological target: GalNAc(b1-4)GlcNAc(b1-2)Man(a1-3)[GalNAc(b1-4)GlcNAc(b1-2)Man(a1-6)]Man(b1-4)GlcNAc(b1-4)GlcNAc
Procedure, shortened: as §1

[8] = biological target: GalNAc(b1-4)GlcNAc(b1-3)GalNAc(b1-4)GlcNAc
Procedure, shortened: as §1

[9] = biological target: GalNAc(b1-4)GlcNAc6S
Procedure, shortened: as §1

[10] = biological target: GalNAc(b1-4)[Neu5Ac(a2-6)]Gal(b1-4)Glc
Procedure, shortened: as §1

[11] = biological target: GalNAc(b1-6)GalNAc
Procedure, shortened: as §1

[12] = biological target: GalNAc3S(b1-4)Gal3S(b1-4)Glc
Procedure, shortened: as §1

[13] = biological target: GalNAc3S(b1-4)GlcNAc
Procedure, shortened: as §1

[14] = biological target: GalNAc3S(b1-4)GlcNAc3S
Procedure, shortened: as §1

[15] = biological target: GalNAc3S(b1-4)[Fuc(a1-3)]GlcNAc
Procedure, shortened: as §1

[16] = biological target: GalNAc4S6S(b1-4)GlcNAc
Procedure, shortened: as §1

[17] = biological target: GalNAc6S(b1-4)GlcNAc
Procedure, shortened: as §1

[18] = biological target: Glc(a1-2)Glc
Procedure, shortened: as §1

[19] = biological target: Glc(a1-2)Glc(a1-3)Glc(a1-3)Man(a1-2)Man(a1-2)Man(a1-3)[Man(a1-3)[Man(a1-6)]Man(a1-6)]Man(b1-4)GlcNAc
Procedure, shortened: as §1

[20] = biological target: Glc(a1-3)Glc
Procedure, shortened: as §1

[21] = biological target: Glc(a1-3)Glc(a1-3)Man(a1-2)Man(a1-2)Man(a1-3)[Man(a1-2)Man(a1-3)[Man(a1-2)Man(a1-6)]Man(a1-6)]Man(b1-4)GlcNAc(b1-4)GlcNAc
Procedure, shortened: as §1

[22] = biological target: Glc(a1-3)Glc(a1-3)Man(a1-2)Man(a1-2)Man(a1-3)[Man(a1-3)[Man(a1-6)]Man(a1-6)]Man(b1-4)GlcNAc
Procedure, shortened: as §1

[23] = biological target: Glc(a1-3)Man(a1-2)Man(a1-2)Man(a1-3)[Man(a1-2)Man(a1-3)[Man(a1-2)Man(a1-6)]Man(a1-6)]Man(b1-4)GlcNAc(b1-4)GlcNAc
Procedure, shortened: as §1

[24] = biological target: Glc(a1-4)Glc
Procedure, shortened: as §1

[25] = biological target: Glc(a1-4)Glc(a1-4)Glc
Procedure, shortened: as §1

[26] = biological target: Glc(a1-4)Glc(a1-4)Glc(a1-4)Glc
Procedure, shortened: as §1

[27] = biological target: Glc(a1-4)Glc(a1-4)Glc(a1-4)Glc(a1-4)Glc
Procedure, shortened: as §1

[28] = biological target: Glc(a1-4)Glc(a1-4)Glc(a1-4)Glc(a1-4)Glc(a1-4)Glc
Procedure, shortened: as §1

[29] = biological target: Glc(a1-4)Glc(a1-4)Glc(a1-4)Glc(a1-4)Glc(a1-4)Glc(a1-4)Glc
Procedure, shortened: as §1

[30] = biological target: Glc(a1-4)Glc(a1-4)Glc(a1-4)Glc(a1-4)Glc(a1-4)Glc(a1-4)Glc(a1-4)Glc
Procedure, shortened: as §1

[31] = biological target: Glc(a1-4)Glc(a1-4)Glc(a1-4)Glc(a1-4)Glc(a1-4)Glc(a1-4)Glc(a1-4)Glc(a1-4)Glc
Procedure, shortened: as §1

[32] = biological target: Glc(a1-4)Glc(a1-4)Glc(a1-4)Glc(a1-4)Glc(a1-4)Glc(a1-4)Glc(a1-4)Glc(a1-4)Glc(a1-4)Glc
Procedure, shortened: as §1

[33] = biological target: Glc(a1-4)Glc(a1-4)Glc(a1-4)Glc(a1-4)Glc(a1-4)Glc(a1-4)Glc(a1-4)Glc(a1-4)Glc(a1-4)Glc(a1-4)Glc
Procedure, shortened: as §1

[34] = biological target: Glc(a1-4)Glc(a1-4)Glc(a1-4)Glc(a1-4)Glc(a1-4)Glc(a1-4)Glc(a1-4)Glc(a1-4)Glc(a1-4)Glc(a1-4)Glc(a1-4)Glc
Procedure, shortened: as §1

[35] = biological target: Glc(a1-4)Glc(a1-4)Glc(a1-4)Glc(a1-4)Glc(a1-4)Glc(a1-4)Glc(a1-4)Glc(a1-4)Glc(a1-4)Glc(a1-4)Glc(a1-4)Glc(a1-4)Glc
Procedure, shortened: as §1

[36] = biological target: Glc(a1-6)Glc
Procedure, shortened: as §1

[37] = biological target: Glc(a1-6)Glc(a1-4)Glc(a1-4)Glc
Procedure, shortened: as §1

B1: PNA (Arachis hypogaea), P02872 (protein)
chain: MKPFCVFLTFFLLLAASSKKVDSAETVSFNFNSFSEGNPAINFQGDVTVLSNGNIQLTNLNKVNSVGRVLYAMPVRIWSSATGNVASFLTSFSFEMKDIKDYDPADGIIFFIAPEDTQIPAGSIGGGTLGVSDTKGAGHFVGVEFDTYSNSEYNDPPTDHVGIDVNSVDSVKTVPWNSVSGAVVKVTVIYDSSTKTLSVAVTNDNGDITTIAQVVDLKAKLPERVKFGFSASGSLGGRQIHLIRSWSFTSTLITTTRRSIDNNEKKIMNMASA
glycan array binding signal (z-score) [1]: -0.128
glycan array binding signal (z-score) [2]: -0.254
glycan array binding signal (z-score) [3]: -0.172
glycan array binding signal (z-score) [4]: -0.195
glycan array binding signal (z-score) [5]: -0.059
glycan array binding signal (z-score) [6]: -0.014
glycan array binding signal (z-score) [7]: 1.67
glycan array binding signal (z-score) [8]: 0.056
glycan array binding signal (z-score) [9]: -0.298
glycan array binding signal (z-score) [10]: -0.195
glycan array binding signal (z-score) [11]: -0.243
glycan array binding signal (z-score) [12]: -0.195
glycan array binding signal (z-score) [13]: -0.376
glycan array binding signal (z-score) [14]: -0.528
glycan array binding signal (z-score) [15]: -0.335
glycan array binding signal (z-score) [16]: -0.748
glycan array binding signal (z-score) [17]: -0.046
glycan array binding signal (z-score) [18]: -0.195
glycan array binding signal (z-score) [19]: -0.195
glycan array binding signal (z-score) [20]: -0.195
glycan array binding signal (z-score) [21]: -0.195
glycan array binding signal (z-score) [22]: -0.195
glycan array binding signal (z-score) [23]: -0.195
glycan array binding signal (z-score) [24]: -0.176
glycan array binding signal (z-score) [25]: -0.195
glycan array binding signal (z-score) [26]: -0.158
glycan array binding signal (z-score) [27]: -0.195
glycan array binding signal (z-score) [28]: -0.195
glycan array binding signal (z-score) [29]: -0.195
glycan array binding signal (z-score) [30]: -0.195
glycan array binding signal (z-score) [31]: -0.195
glycan array binding signal (z-score) [32]: -0.195
glycan array binding signal (z-score) [33]: -0.195
glycan array binding signal (z-score) [34]: -0.195
glycan array binding signal (z-score) [35]: -0.195
glycan array binding signal (z-score) [36]: -0.195
glycan array binding signal (z-score) [37]: -0.195

— the supplement of paper PMC8728848
